# According to article PMC4336329 (PLoS ONE, 2015):
# About 2,200 (0.71%) of roughly 310,000 compounds showed an effect of 50% or more. The effect is printed as a negative number. The list shows a part of the results.
# Target: human ether-à-go-go-related gene (hERG) potassium channel (human, UniProt Q12809)
# Assay: primary screen, population patch clamp on CHO cells stably expressing hERG
# Chain of human ether-à-go-go-related gene (hERG) potassium channel (Q12809 whole entry, looked up): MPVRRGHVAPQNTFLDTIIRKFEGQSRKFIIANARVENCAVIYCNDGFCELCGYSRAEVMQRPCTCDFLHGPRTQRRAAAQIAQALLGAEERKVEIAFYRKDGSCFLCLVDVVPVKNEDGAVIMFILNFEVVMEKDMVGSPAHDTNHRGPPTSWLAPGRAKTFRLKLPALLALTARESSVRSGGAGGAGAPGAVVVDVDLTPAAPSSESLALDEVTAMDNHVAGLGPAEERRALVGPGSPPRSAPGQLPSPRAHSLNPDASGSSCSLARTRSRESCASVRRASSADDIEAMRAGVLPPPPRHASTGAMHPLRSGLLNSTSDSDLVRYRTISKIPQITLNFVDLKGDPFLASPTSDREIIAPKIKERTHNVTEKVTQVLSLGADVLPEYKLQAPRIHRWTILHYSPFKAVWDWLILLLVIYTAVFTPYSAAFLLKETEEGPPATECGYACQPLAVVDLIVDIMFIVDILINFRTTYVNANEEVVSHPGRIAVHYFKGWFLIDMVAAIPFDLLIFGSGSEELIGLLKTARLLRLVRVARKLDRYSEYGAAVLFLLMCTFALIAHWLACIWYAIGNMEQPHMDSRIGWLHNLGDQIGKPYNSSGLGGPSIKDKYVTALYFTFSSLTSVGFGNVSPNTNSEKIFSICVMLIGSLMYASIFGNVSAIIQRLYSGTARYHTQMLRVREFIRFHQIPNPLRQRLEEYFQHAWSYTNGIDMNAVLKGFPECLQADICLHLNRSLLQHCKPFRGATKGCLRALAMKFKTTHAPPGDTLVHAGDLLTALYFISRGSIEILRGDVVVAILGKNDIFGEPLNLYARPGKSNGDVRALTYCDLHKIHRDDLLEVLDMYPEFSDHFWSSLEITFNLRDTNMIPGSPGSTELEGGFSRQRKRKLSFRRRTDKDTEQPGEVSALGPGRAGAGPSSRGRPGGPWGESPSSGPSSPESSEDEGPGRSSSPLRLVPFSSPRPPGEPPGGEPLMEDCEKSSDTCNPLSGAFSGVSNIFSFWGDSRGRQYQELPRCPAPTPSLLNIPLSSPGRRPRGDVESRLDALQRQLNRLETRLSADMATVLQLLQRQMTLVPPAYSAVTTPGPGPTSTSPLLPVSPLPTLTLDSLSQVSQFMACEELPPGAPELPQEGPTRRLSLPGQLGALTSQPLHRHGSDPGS
row,SMILES,"hERG current change (%, negative = inhibition) at 1uM [%]"
1,CCCCOc1ccc(C(=O)N/C(=C\c2cccc([N+](=O)[O-])c2)C(=O)OCc2ccco2)cc1,15.4
2,COc1ccc(NC(=O)COC(=O)c2c(C)noc2C)c(OC)c1,6.66
3,COc1ccc(C(=O)NC(C(=O)OCC(=O)Nc2sccc2C(N)=O)C(C)C)cc1 (stereo not drawn),11.9
4,O=C(O)C(=O)O.O=C(c1ccccc1)N1CCN(C2CC3CCC2C3)CC1 (stereo not drawn),5.08
5,CCn1c(CSc2nc3ccccc3[nH]2)nc2cc(C(=O)O)ccc21,16.6
6,Cc1c(C)c2cc(Cl)c(OCC(=O)N3C[C@H]4C[C@@H](C3)c3cccc(=O)n3C4)cc2oc1=O,12
7,COc1ccc(-n2cc(-c3ccccc3)c3c(=S)nc[nH]c32)cc1,5.59
8,O=C1CC(NS(=O)(=O)c2ccc([N+](=O)[O-])cc2)CN1c1cccc(F)c1 (stereo not drawn),-22.3
9,Cc1nn(C)c(C)c1N1C(=O)c2cccc3c(N)ccc(c23)C1=O,4.66
10,O=C(N/N=C/c1cc(Br)cs1)c1c[nH]c2ccccc12,11.7
11,CCCCN(C)C(=O)c1nc2ccccn2c1CN1CCN(c2ccccn2)CC1,8.02
12,CC(=O)c1ccc(S(=O)(=O)N2CCN(CC#N)CC2)cc1,11.3
13,Cc1ccc(C(=O)CSc2nnc(Cn3nnc4ccccc43)n2C)cc1,4.39
14,Cn1ccnc1SCC(=O)n1c2c(c3ccccc31)CCCC2,1.84
15,CCCNC(=O)COC(=O)c1ccccc1OCC(=O)Nc1ccc(Br)cc1,8.14
16,O=C1/C(=C\c2ccc(Br)o2)Cc2ccccc21,8.75
17,CCOC(=O)c1c(-c2ccccc2)csc1NC(=O)c1cc(S(=O)(=O)N2CCOCC2)ccc1C,10.4
18,Cc1ccc(C)c(N2N=C(C(=O)Nc3ccccc3N3CCCC3)CCC2=O)c1,13.9
19,CC1(C)CC(=O)C/C(=N\NC(=O)C2CC2c2ccccc2)C1.I (stereo not drawn),15.2
20,Cc1ccc(NC(=O)N2CCCCCC2)cc1C,9.64
21,CC(C)Cc1ccc(C(C)C(=O)Nc2ncccn2)cc1 (stereo not drawn),8.22
22,O=C(NCCCn1ccnc1)c1sc2cccc(F)c2c1Cl,-19
23,COc1ccc(CCNC(=O)[C@H](CC(C)C)NC(=O)N2CCn3c2nc2ccccc23)cc1OC,10.8

row,SMILES,"hERG current change (%, negative = inhibition) at 1uM [%]"
1,O=C(CN1C(=O)NC2(CCCC2)C1=O)Nc1ccc(OC(F)(F)F)cc1,5.24
2,CCOc1ccccc1Oc1c(C)oc2cc(OC(=O)c3ccco3)ccc2c1=O,-0.98
3,CC(NC(=O)c1ccccc1F)C1CC1 (stereo not drawn),14.3
4,CC(=O)N1CCN(c2ccc([N+](=O)[O-])c(NCc3cccnc3)c2)CC1,-2.86
5,COc1ccc(OCc2nnc(SCC(=O)NC3CCCCC3)o2)cc1,4.24
6,CCOC(=O)N1CCN(c2nc(-c3cccs3)nc3ccccc23)CC1,14.2
7,CCN(CCCNC(=O)Cn1ncc2c([nH]c3ccccc32)c1=O)Cc1ccccc1,-2.84
8,NC(=O)/C=C/C(=O)Nc1ccc(Cl)cc1,3.38
9,Cc1ccc(S(=O)(=O)Nc2ccccc2C(=O)Nc2sccc2C(=O)NN(C)C)cc1,-11.7
10,COCC(=O)Nc1ccccc1C#N,15.8
11,CN(CC1CCCN(CCc2ccc(F)cc2)C1)C(=O)CCC(N)=O (stereo not drawn),5.6
12,Cc1cccc(Nc2nc(NCC3CCCO3)nc(N)c2[N+](=O)[O-])c1 (stereo not drawn),0.453
13,Cc1ccc(NC(=O)N2CCC(C(=O)NCc3ccccc3)CC2)cc1,-4.16
14,CC(NC(=O)COC(=O)CNC(=O)c1ccccc1Cl)C1CC2CCC1C2 (stereo not drawn),8.49
15,C1CN(c2nc3nonc3nc2N2CCOCC2)CCO1,11.5
16,CCCOc1ccc(NC(=O)CC2C(=O)Nc3ccccc3N2CC(=O)N2CCCC2)cc1 (stereo not drawn),18.2
17,COc1ccccc1CNC(=O)COc1cc2c(c3oc(=O)cc(C)c13)CCC(C)(C)O2,11.2
18,NC(=O)c1c(NC(=O)c2ccco2)sc2c1CCC2,10.1
19,COc1ccc(-n2nc3c(c2NC(=O)C(C)C)CSC3)cc1,12.9
20,Cc1ccc(NC(=S)N(CCN2CCOCC2)Cc2cc3cc4c(cc3[nH]c2=O)OCO4)cc1,5.67
21,CC(Oc1ccc(C#N)cc1)C(=O)c1ccc(F)c(F)c1 (stereo not drawn),-7.05
22,C/C(=N/NC(=O)CNC(=O)c1cccnc1)c1ccccc1,1.34
23,CC(=O)NNc1ncnc2c1cnn2-c1ccc(C)c(Cl)c1,4.98

row,SMILES,"hERG current change (%, negative = inhibition) at 1uM [%]"
1,Cc1ccc(S(=O)(=O)n2c3ccc(F)cc3c3nc(C)sc32)cc1,3.81
2,COc1ccc(C2CC(c3ccc4ccccc4c3OC(C)=O)=NN2C(=O)/C=C/c2ccccc2)cc1 (stereo not drawn),4.25
3,COc1ccc(N(C(C)C(=O)NN=C2CCCC2)S(C)(=O)=O)cc1 (stereo not drawn),13.2
4,CCCC1CCc2c(c3ccccc3[nH]c2=O)O1 (stereo not drawn),17.2
5,O=C(c1ccccc1F)N1CCCc2ccccc21,11.9
6,CCCc1cc(-n2cnc3ccccc32)n2c(nc3ccccc32)c1C#N,-6.04
7,C=CCOc1ccc(C=Nc2cccc(Cl)c2)c(O)c1,9.21
8,Cc1nnc(SC(=O)N2c3ccccc3Sc3ccccc32)s1,11.1
9,O=C(CSc1nc(-c2ccccc2)ns1)NCC1CCCO1 (stereo not drawn),8.27
10,O=C1CC(C(=O)Nc2cccc(F)c2)n2c(nc3ccccc32)N1 (stereo not drawn),7.93
11,O=[N+]([O-])c1c(NCCO)cc(N2CCCCC2)c2nonc12,14.3
12,CC1(C(=O)Nc2ccc3c(c2)OCCO3)CC1(Cl)Cl (stereo not drawn),9.78
13,Cc1cccc(C)c1NC(=O)C(Cl)C(=O)c1ccccc1 (stereo not drawn),18.7
14,COc1ccc(S(=O)(=O)N2CCCC(C(=O)N3CCCCCC3)C2)cc1 (stereo not drawn),5.41
15,CCOc1ccc(/C=N/n2c(C)nnc2C)cc1OC,13.9
16,Cc1cc(S(=O)(=O)NCc2ccncc2)c(C)cc1Br,5.84
17,Cc1ccc(CN(C(=O)Cn2nnc3ccccc32)C(C(=O)NCc2ccco2)c2cccs2)cc1 (stereo not drawn),-0.998
18,Cc1ccc(S(=O)CCNC(=O)Cc2ccc(Cl)cc2)cc1 (stereo not drawn),8.46
19,O=C(CN(Cc1ccccc1F)C(=O)c1ccco1)NCc1ccc(F)cc1,-11.6
20,COC(=O)CNc1cc(S(=O)(=O)N2CCCCC2)ccc1Oc1ccc(C(=O)OC)cc1,12.8
21,CN(NS(C)(=O)=O)c1ncc(C(F)(F)F)cc1Cl,4.04
22,O=C(CN1C(=O)NC2NC(=O)NC21)N/N=C/c1ccccc1O (stereo not drawn),21.8
23,Cc1sc2nc(CN3CCOCC3)nc(N3CCOCC3)c2c1C.O=C(O)C(=O)O,1.92

row,SMILES,"hERG current change (%, negative = inhibition) at 1uM [%]"
1,CCOC(=O)C(C)Oc1cccc2c(=O)n(CC(=O)Nc3cccc(OC)c3)ccc12 (stereo not drawn),0.0185
2,CCN(CCn1cccn1)Cc1nc(-c2ccccc2)no1,10.3
3,COc1cccc(C(=O)NC2=NCCS2)c1OC,-8.97
4,Cc1ccc(C(=O)N2CCN(c3ccc(NC(=O)Cc4ccccc4)cc3)CC2)cc1,-3.8
5,CCN(CC)S(=O)(=O)c1ccc(NC(=O)C2c3ccccc3Oc3ccccc32)cc1,7.56
6,O=C1CC(N2CCCc3ccccc32)C(=O)N1c1ccccc1 (stereo not drawn),6.45
7,Cc1ccc(NC(=O)CSC(C)C(=O)NCCc2ccccn2)cc1 (stereo not drawn),14.4
8,Br.COc1ccc(C(=O)Cn2c(=N)n(C)c3ccccc32)cc1,-9.98
9,O=C(NC1(C(F)(F)F)N=C2SCCN2C1=O)c1ccccc1 (stereo not drawn),10.2
10,Cc1ccc2nc3c(cc(C(=O)NCCCn4ccnc4)n3C)c(=O)n2c1,7.52
11,Cc1cc(Cl)ccc1OC(C)C(=O)Nc1ccc([N+](=O)[O-])cn1 (stereo not drawn),-24.8
12,Cc1ccc(-n2c(-c3ccccc3)cc(=O)nc2C)cc1,3.69
13,CCN(CC)c1ccc([N+](=O)[O-])c2cccnc12,-0.843
14,Cc1ccccc1N1CCN(C2CCCN(C(=O)c3cn4c(C)cccc4n3)C2)CC1 (stereo not drawn),-8.36
15,COC(=O)C(=C/C=C/N1CCOCC1)C(=O)OC,13.9
16,CCCCC(C(=O)NC1CCCC1)N(C(=O)c1snc(C(N)=O)c1N)c1ccc(F)cc1 (stereo not drawn),8.6
17,O=[N+]([O-])c1ccccc1/C=C/CN1CCCCC1CO (stereo not drawn),17.6
18,Cc1nn(Cc2ccccc2)c(C)c1NC(=O)CCCn1nc(C)c([N+](=O)[O-])c1C,2.73
19,CCC(CCC(=O)Nc1cccc(C(=O)O)c1)C(=O)O (stereo not drawn),2.18
20,COC(=O)c1cn(Cc2cccc(C)c2)nn1,1.48
21,Cc1sc2ncnc(OCC(=O)NCc3cccs3)c2c1C,13.2
